# From PubChem BioAssay AID485364 (National Center for Advancing Translational Sciences (NCATS), 2010)
# About 11,000 (3.1%) of roughly 360,000 compounds were called active. This list was built around the results that the source calls inconclusive (neither active nor inactive); the mix of calls is not that of the screen. Calls come from the whole dose curve; as a rule, active = well fitted inhibition curve with a large enough effect; inconclusive = small, poorly fitted or top-dose-only effect; inactive = no such curve, though single readings can be large or run the other way. No potency is given beside an inconclusive call; the fits are too rough.
# Target: Schistosoma mansoni thioredoxin glutathione reductase (TGR) (UniProt Q962Y6)
# Experiment: qHTS Assay for the Inhibitors of Schistosoma Mansoni Peroxiredoxins; note: nearly all actives have a fitted effect of over 60% in size
# Details: purified TGR, DTNB reduction, TNB absorbance 405 nm; series mostly up to 114 µM
# How it was run: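 Kinetic colorimetric format: TGR-catalysed, NADPH-driven DTNB reduction monitored via TNB absorbance. Enzyme dispensed at 20 nM; compound exposure 15 min at room temperature before reaction start.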
# Potency is the fitted concentration of half-maximal effect; tags give direction and shape of the fitted curve.
row,Compound,Potency
1,CC(=O)NC(c1ccco1)c1cc(Cl)c2ccc(N3CCCCC3)nc2c1O (configuration not stated),active: 10 µM
2,CN(C)N1C(N)=C(C#N)C(c2cccnc2)C2=C1CCCC2=O (configuration not stated),"inconclusive [inhibitor, single point]"
3,O=C(COC(=O)c1ccco1)NC(c1ccccc1)c1ccccc1,"inconclusive [inhibitor, partial curve]"
4,O=C(C1=C[C@H](c2ccc(C(F)(F)F)cc2)C[C@H](OCCCCO)O1)N1CCN(Cc2ccc3c(c2)OCO3)CC1,"inconclusive [inhibitor, single point]"
5,CCOc1ccc(C(=O)CCC(=O)NNC(=O)c2ccncc2)cc1,"inconclusive [inhibitor, partial curve]"
6,Cc1ccc(C(=O)N/N=C\c2ccc([N+](=O)[O-])s2)cn1,"inconclusive [inhibitor, partial curve]"
7,CCCC(=O)N1c2nc(-c3ccco3)nn2C2(CCCCC2)[C@@H]2CCCC[C@@H]21,active: 35.5 µM
8,CC(=O)Oc1ccc(C(=O)Nc2ccc(C3(C#N)CCCC3)cc2)cc1,inactive
9,COc1cccc(CN2CCNC(=O)C2CC(=O)N(Cc2cnn(C)c2)C(C)C)c1 (configuration not stated),"inconclusive [inhibitor, partial curve]"
10,O=C1CCN(Cc2ccccc2)S(=O)(=O)c2c(F)cc(F)cc21,"inconclusive [inhibitor, full curve]"
11,C=CCN1CCc2c(cc(O)c(O)c2Cl)C(c2ccccc2)C1 (configuration not stated),"inconclusive [inhibitor, partial curve]"
12,COc1ccc(S(=O)(=O)N2CCOCC2)cc1NC(=O)COC(=O)C1COc2ccccc2O1 (configuration not stated),"inconclusive [inhibitor, single point]"
13,NC(N)=NS(=O)(=O)c1ccc(NC(=S)NC(=O)c2ccc3c(c2)OCO3)cc1,"inconclusive [inhibitor, single point]"
14,C#CCN(CC=C)C(=O)c1cccc(OC2CCN(S(C)(=O)=O)CC2)c1,inactive
15,CCn1ncc(Cl)c1C(=O)NC(=S)Nc1ccccc1Br,active: 28.2 µM
16,O=C(CCS(=O)(=O)c1ccc(Cl)cc1)Nc1ccc(N2CCOCC2)cc1,"inconclusive [inhibitor, partial curve]"
17,COCCn1c(SCC(=O)c2ccc(F)cc2)nnc1C(C)C,"inconclusive [inhibitor, partial curve]"
18,COC(=O)c1cc(C(=O)c2cc(F)ccc2O)cn2c(=O)c3c(C)c(C)sc3nc12,"inconclusive [inhibitor, full curve]"
19,CCCC(=O)NC(=S)Nc1cccc(NC(=O)c2ccccc2Cl)c1,"inconclusive [inhibitor, partial curve]"
20,Brc1ccc(-c2nn3c(-c4ccco4)nnc3s2)o1,active: 8.91 µM
21,Cc1nc2ccccc2n1CCc1nc2c3ccccc3nc(SCc3ccccc3F)n2n1,inactive
22,CCC1Sc2ccc(S(=O)(=O)CCC(=O)Nc3cc(C)ccn3)cc2NC1=O (configuration not stated),"inconclusive [inhibitor, full curve, poor fit]"
23,COc1ccc(-c2cc(C(F)(F)F)nc(S(=O)(=O)CCCC(=O)Nc3cc(C)on3)n2)cc1OC,"inconclusive [inhibitor, single point]"

row,Compound,Potency
1,COC(=O)CSc1nc(N)c2c3c(sc2n1)CCCC3,"inconclusive [inhibitor, single point]"
2,Clc1ccc(C2[C@H]3CN(Cc4ccc(-c5ccccc5)cc4)[C@H](c4ccccc4)C34CC2(c2cccnc2)C4)cn1 (some centres not stated),"inconclusive [inhibitor, partial curve]"
3,O=C(NCCCO)/C(=C/c1ccc(-c2cccc([N+](=O)[O-])c2)o1)NC(=O)c1ccccc1,inactive
4,CCOC(=O)c1c(-c2ccc(C)o2)csc1NC(=O)CN(C)CC(=O)Nc1ccc(C)cc1,"inconclusive [inhibitor, partial curve]"
5,CCOc1ccc(CNc2nc3ccccc3n2C)cc1,inactive
6,O=C(C1=C[C@@H](c2ccccc2)C[C@@H](OCCCCO)O1)N1CCOCC1,active: 39.8 µM
7,Cc1ccccc1Nc1nc(N)nc(COC(=O)/C=C/c2ccco2)n1,active: 12.6 µM
8,COc1cc2c(cc1OC)C(C1C(=O)CC(C)(C)CC1=O)N(C(=O)CCl)CC2 (configuration not stated),"inconclusive [inhibitor, partial curve]"
9,Cc1cc(C)n(-c2nc3ccccc3c(=O)n2OCC(=O)Nc2c(C)cccc2C)n1,inactive
10,CCOC(=O)[C@H]1[C@H]2COc3ccc(OC)cc3[C@@H]2N2C(=O)[C@H](C)NC(=O)[C@@]12C,"inconclusive [inhibitor, single point]"
11,COc1ccc(S(=O)(=O)N(C)c2ccc(C(=O)Nc3cccnc3)cc2)cc1OC,"inconclusive [inhibitor, partial curve]"
12,Cc1cc([N+](=O)[O-])nn1CC(=O)NCCc1c[nH]c2ccccc12,"inconclusive [inhibitor, single point]"
13,COc1cccc(-c2noc(-c3cc4ccccc4oc3=O)n2)c1OC,inactive
14,COc1cc([N+](=O)[O-])cc2cc(C(=O)N3CCN=C3c3ccccc3)c(=O)oc12,"inconclusive [inhibitor, partial curve]"
15,Cc1ccc2cc(CCNC(=O)c3ccco3)c(=O)[nH]c2c1C,"inconclusive [inhibitor, partial curve]"
16,COc1cc([N+](=O)[O-])ccc1NC(=O)N1CCCCCC1,active: 31.6 µM
17,COc1cc(/C=N/O)ccc1Oc1ccc([N+](=O)[O-])cc1[N+](=O)[O-],"inconclusive [inhibitor, partial curve]"
18,O=C(O)c1cc(O)c2c(c1)C(=O)c1cc(O)cc(O)c1C2=O,"inconclusive [inhibitor, single point]"
19,CCCNC(=O)c1nnsc1S(=O)(=O)c1ccc(Cl)cc1,active: 0.316 µM
20,CC(=O)Nc1cccc(NC(=O)CS(=O)(=O)c2cn(CC(=O)N3CCCC3)c3ccccc23)c1,"inconclusive [inhibitor, partial curve]"
21,CCN(C(=O)COC(=O)/C(C#N)=C/c1ccc(OC)cc1)C1CCS(=O)(=O)C1 (configuration not stated),inactive
22,Cc1ccc(-n2ncc(C(=O)N3CCN(C(=O)c4ccco4)CC3)c2-n2cccc2)cc1,"inconclusive [inhibitor, partial curve]"
23,O=C(Nc1ccc(O)c2c(=O)cc(-c3cccc(Cl)c3)oc12)c1cccc(Cl)c1,"inconclusive [inhibitor, partial curve]"

row,Compound,Potency
1,CN1CCN(C(c2ccc(Cl)cc2)c2cc(Cl)c3cccnc3c2O)CC1 (configuration not stated),active: 0.355 µM
2,COc1ccc(-c2nc(N)nc(N)n2)c(O)c1,"inconclusive [inhibitor, single point]"
3,O=C(CN1CCc2ccccc21)NC(=O)NCc1ccco1,"inconclusive [inhibitor, full curve, poor fit]"
4,CCc1ccccc1NC(=O)N1CCN(Cc2nc3ccc(C)cc3o2)CC1,inactive
5,CCOc1ccc2nc(SCC(=O)NCc3ccccc3OC)[nH]c2c1,inactive
6,O=C(NCCO)/C(=C\c1ccco1)NC(=O)c1cccs1,"inconclusive [inhibitor, partial curve]"
7,N/C(=N\OC(=O)CC1CCCCC1)c1ccc(Cl)cc1,inactive
8,CCCCCNC(=O)c1ccc(NS(=O)(=O)c2ccc3[nH]c(=O)[nH]c3c2)cc1,active: 25.1 µM
9,Cc1cc(Nc2cccc(Cl)c2)nc2ccc(NC(=O)Cc3c(F)cccc3Cl)cc12,inactive
10,Cc1ccc(Sc2cc(NCCCO)c([N+](=O)[O-])c3nonc23)cc1,active: 3.55 µM
11,COc1cccc(C2=NO[C@@H]3C(=O)N(Cc4ccccc4)C(=O)[C@H]23)c1OC,active: 50.1 µM
12,CCOc1ccc(N2CC(=O)Nc3ccccc3NCC2=O)cc1,"inconclusive [inhibitor, full curve]"
13,COc1ccc(C(=O)CSC#N)cc1OC,"inconclusive [inhibitor, full curve, poor fit]"
14,CCCN1CCc2c(sc(NC(=S)NC(=O)c3ccccc3)c2C#N)C1,"inconclusive [inhibitor, full curve]"
15,O=C(NCC(=O)N(Cc1ccco1)C(C(=O)NC1CCCCC1)c1ccncc1)c1cccs1 (configuration not stated),"inconclusive [inhibitor, partial curve]"
16,C#CCOCCOCCOCCNc1nc(N2CCN(C(=O)[C@H](CCCCN)n3cc([C@@H](N)C(C)CC)nn3)CC2)nc(N2CCN(C(=O)[C@H](Cc3cc4ccccc4[nH]3)n3cc([C@@H](N)CC(C)C)nn3)CC2)n1 (some centres not stated),"inconclusive [inhibitor, partial curve]"
17,COC(=O)COc1c(/C=C\c2nc(O)c([N+](=O)[O-])c(=O)[nH]2)cccc1OC,"inconclusive [inhibitor, full curve, poor fit]"
18,COc1ccc(CN(CCC(c2ccccc2)c2ccco2)C(=O)c2ccco2)cc1 (configuration not stated),active: 35.5 µM
19,Cc1ccccc1NC(=S)NC(=O)C1CCCCC1,active: 14.1 µM
20,CCC(=O)N1CCN(c2ccc(NC(=S)NC(=O)COc3ccccc3)cc2)CC1,"inconclusive [inhibitor, partial curve]"
21,NS(=O)(=O)c1ccc(NS(=O)(=O)c2ccc(NC(=O)C3CC3)cc2)cc1,"inconclusive [inhibitor, single point]"
